Results as given in PubChem BioAssay AID686978 (National Center for Advancing Translational Sciences (NCATS), 2013).
Where “and” joins values, the source holds several entries; their conditions need not be identical. Equal entries are not always repeated. Among all 420,000 compounds or so, about 64,000 (15%) were called active. The shares of active, inactive and inconclusive entries below differ from those in the screen. Calls come from the whole dose curve; as a rule, active = well fitted inhibition curve with a large enough effect; inconclusive = small, poorly fitted or top-dose-only effect; inactive = flat fitted curve, though single readings scatter. Potencies of inconclusive entries are left out as doubtful fits.

Assay: qHTS for Inhibitors of human tyrosyl-DNA phosphodiesterase 1 (TDP1): qHTS in cells in absence of CPT; note: nearly all actives have a fitted effect of over 55% in size
Conditions: DT40 Tdp1-/- hTDP1 cells, no CPT, ATP luminescence, 48 h; activity change, negative = growth inhibition: at 46.2 µM (top of the series)
In short: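 Cells were dispensed at 400 per well, compounds added by pin tool, plates incubated ≥48 hr at 37 °C, then CellTiter-Glo added for 30 min at room temperature before luminescence reading. Line: DT40 Tdp1-/- complemented with hTDP1; camptothecin omitted.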
% is set by controls: 0 for no effect and ±100 for the full control effect; potency is the fitted concentration of half-maximal effect; tags give direction and shape of the fitted curve.

Compound	Potency	activity change, negative = growth inhibition
O=C(NCCC1=CCCCC1)Nc1ccc2nsnc2c1	active: 10.3 µM	–
CC(C)CN(c1ccccc1)S(=O)(=O)c1nnc(NC(=O)c2ccco2)s1	inconclusive [inhibitor, single point]	–
CCCOc1ccccc1C(=O)Nc1ccc(S(=O)(=O)N2CCN(C)CC2)cc1	active: 16.4 µM	–
O=C(Nc1ccccc1)Nc1cccc2nsnc12	inconclusive [inhibitor, single point]	–
O=C1c2[nH]nc(-c3ccccc3O)c2C(c2cccc(Cl)c2)N1CC1CCCO1 (stereo unspecified)	active: 18.4 µM	–
CC(=O)c1c(C)oc2ccc(N(C(=O)Oc3ccccc3)S(=O)(=O)c3ccc(Br)cc3)cc12	–	inactive: 22.2%
CN(C)CCOCCOc1ccc(Cl)cc1Br	inconclusive [inhibitor, partial curve, poor fit]	–
Cc1ccc(NC(=O)COc2ccccc2)c(NC(=O)c2ccco2)c1	–	inactive: 4.18%
Cn1nnc2cc(NC(=O)NCc3ccc4c(c3)OCO4)ccc21	–	inactive: -28.5%
CCc1nc2ccc(C(=O)Nc3cccc(OC)c3)cn2c1N(CCC(C)C)CCN(C)C	–	inactive: -99.5%
CCn1c(=NC(=O)CSC(C)=O)sc2cc(F)ccc21	active: 18.4 µM	–
CCn1cc(C(=O)N2CCN(c3ccccc3OC)CC2)c(=O)c2cc(S(=O)(=O)N3CCCCC3)ccc21	–	inactive: -26%
CCN1N=C(c2cc(Cl)sc2Cl)CSC1=O	inconclusive [inhibitor, single point]	–
Cc1nc2ccc(Cc3ccc4nc(C)[nH]c4c3)cc2[nH]1	inconclusive [inhibitor, partial curve, poor fit]	–
COc1ccc(N2CCN(C(=O)c3ccc(NS(=O)(=O)c4ccc(F)c(F)c4)cc3)CC2)cc1	inconclusive [inhibitor, partial curve]	–
COc1cc(OC)c(NC(=O)c2oc3ccc4c(c3c2C)C(=O)CC(C)(C)O4)cc1Cl	–	inactive: -5.86%
CCC(=O)N(NC1=NS(=O)(=O)c2ccccc21)S(=O)(=O)c1ccc(C)cc1	–	inactive: -3.39%
COc1ccc(NC(=O)N2CCc3c(sc4c3CCCC4)C2c2ccc(F)cc2)cc1 (stereo unspecified)	active: 20.6 µM	–
COc1ccc(OCC(=O)Nc2ccc(N3CCN(C(=O)c4ccccc4)CC3)c(Cl)c2)cc1	active: 11.6 µM	–
O=S(=O)(c1ccccc1)N(CC(O)Cn1c2ccccc2c2ccccc21)c1ccccc1 (stereo unspecified)	inconclusive [inhibitor, single point]	–
CCC(C)NCCC(=O)Nc1ccc(Cl)c(S(=O)(=O)Nc2ccc(Cl)cc2)c1 (stereo unspecified)	inconclusive [inhibitor, single point]	–
CCCCC1CCC(C(=O)N(CCOC)c2c(N)n(CC(C)C)c(=O)[nH]c2=O)CC1 (stereo unspecified)	inconclusive [inhibitor, single point]	–
Cc1cccc(OCC(=O)N2CCc3ccccc3C2)c1C	inconclusive [inhibitor, single point]	–
NS(=O)(=O)c1cccc(NS(=O)(=O)c2ccc(/C=C/C(=O)O)cc2)c1	–	inactive: -3.98%
Cn1cc(C(=O)NCc2ccc(F)cc2)c(=O)c2cc(S(=O)(=O)N3CCCCC3)ccc21	active: 11.6 µM and active: 16.4 µM	–
CC(C)Nc1nc(NC(C)(C)C)nc(Oc2ccc(=O)n(-c3ccccc3)n2)n1	inconclusive [inhibitor, partial curve]	–

Compound	Potency	activity change, negative = growth inhibition
CCOc1ccc(-c2nnc(Nc3ccc(OC)c(C(=O)N4CCCCC4)c3)c3ccccc23)cc1	active: 16.4 µM	–
FC(F)(F)c1nnc2ccc(N3CCCCC3)nn12	–	inactive: -23.1%
CCN(CC(=O)Nc1c(F)cccc1F)C(=O)c1cccc(S(=O)(=O)N2CCc3ccccc3C2)c1	inconclusive [inhibitor, single point]	–
CC1CC(C)CN(S(=O)(=O)c2ccccc2[N+](=O)[O-])C1 (stereo unspecified)	active: 13 µM	–
CC(C)(C)OC(=O)N1CCC(NC(=O)c2ncn(Cc3ccccc3)c2C(=O)NC2CCN(C(=O)OC(C)(C)C)CC2)CC1	inconclusive [inhibitor, single point]	–
Cc1ccc2nc(-c3ccccc3)c(Cc3cccc(Cl)c3)n2c1	active: 18.4 µM	–
COc1ccccc1CNC(=O)C(CCSC)NC(=O)C1CCC(C)CC1 (stereo unspecified)	–	inactive: -12.6%
Cc1onc(-c2ccccc2)c1C(=O)Nc1cccc2nsnc12	inconclusive [inhibitor, full curve]	–
CC(=O)c1ccccc1NC(=O)COC(=O)c1cc[n+]([O-])cc1	–	inactive: -2.59%
Cc1ccccc1-c1noc(N)c1C#N	inconclusive [inhibitor, single point]	–
COc1ccccc1NC(=O)NCCN1CCNC1=O	–	inactive: -3.3%
CN(Cc1ccccc1)C(=O)[C@@H]1CCCN1C(=O)[C@@H]1CCCN1C(=O)OC(C)(C)C	–	inactive: -27.8%
c1coc(-c2ccnc(-c3ccncc3)n2)c1	–	inactive: 2.21%
CCCc1nn2c(=O)cc(CSCC(=O)Nc3ccc(OC)cc3)nc2s1	–	inactive: 3.02%
COC(=O)C1=C(C)NC(=O)CC1c1cc2c(cc1Br)OCO2 (stereo unspecified)	–	inactive: -23.5%
CC(O)CNc1nc2ccccc2n1CC(=O)NC12CC3CC(CC(C3)C1)C2 (stereo unspecified)	inconclusive [inhibitor, single point]	–
CCC(=O)Oc1ccc(NC(=O)c2ccc(S(=O)(=O)N3CCCC3)cc2)cc1	active: 20.6 µM	–
O=C(COc1ccc2ccccc2c1Br)Nc1cccnc1	inconclusive [inhibitor, partial curve]	–
CCc1ccc(CNC(=O)c2cc3c(=O)oc4ccc(C)cc4c3s2)cc1	inconclusive [inhibitor, partial curve]	–
COc1ccc(C)cc1NC(=O)CN1C(=O)C2CC=CCC2C1=O (stereo unspecified)	–	inactive: 22.6%
CCNc1c(NS(=O)(=O)c2ccc(Br)s2)c(=O)oc2ccccc12	–	inactive: -17.6%
CCN(c1ccccc1)S(=O)(=O)c1ccc(Cl)c(NC(=O)CSc2nnc(C)s2)c1	inconclusive [inhibitor, single point]	–
CCN(C(=O)c1sc2nc3n(c(=O)c2c1C)CCCCC3)c1ccccc1F	inconclusive [inhibitor, single point]	–
Cc1cccc(-c2cc3nc4c(c(NCc5ccco5)n3n2)CCCC4)c1	inconclusive [inhibitor, single point]	–
CN(C)C(=O)c1ccc(S(=O)(=O)NCc2ccccc2Cl)s1	–	inactive: -28.2%
O=C(N/N=C/c1ccccn1)c1ccncc1	–	inactive: 10.6%

Compound	Potency	activity change, negative = growth inhibition
O=C(Nc1ccc(Cl)cc1)C1C2C=CC3(O2)C1C(=O)N(CCCN1CCCCC1)C3C(=O)NC1CCCCC1 (stereo unspecified)	–	inactive: 0.715%
O=[N+]([O-])c1cccc(/C=N/Nc2ncc(Br)cn2)c1	–	inactive: -9.68%
COc1cc(OC)cc(-n2c(=O)[nH]c3cc(C(=O)NCCc4ccc(C)cc4)ccc3c2=O)c1	–	inactive: -3.78%
Cn1ncc([N+](=O)[O-])c1C(=O)Nc1ccc(C2CCCCC2)cc1	inconclusive [inhibitor, single point]	–
CC(C)Oc1cccc(C(=O)NC(=S)Nc2ccc(N3CCN(C)CC3)cc2)c1	inconclusive [inhibitor, single point]	–
COc1ccc(-c2cn3c(C)c(C(=O)NC(C)C)sc3n2)cc1	–	inactive: -23.3%
CCCc1cc(=O)oc2c(C)c3occ(C)c3cc12	inconclusive [inhibitor, partial curve]	–
CS(=O)c1ccccc1-c1nc(-c2cccc(Cl)c2)no1 (stereo unspecified)	active: 16.4 µM	–
CNC(=O)C1CN(C(=O)c2cccc(S(=O)(=O)N3CCc4ccccc43)c2)c2ccccc2O1 (stereo unspecified)	active: 5.8 µM	–
O=[N+]([O-])c1cccc(S(=O)(=O)c2ccc(N3CCCCC3)c([N+](=O)[O-])c2)c1	active: 25.9 µM	–
COc1ccc(-c2cc(C(F)(F)F)nc(SCC(=O)NCc3ccc(F)cc3)n2)cc1	inconclusive [inhibitor, full curve]	–
N#C/C(=N\Nc1ccc(Cl)cc1)C(N)=S	active: 5.8 µM	–
COc1ccc(C2NCCc3c2[nH]c2ccccc32)cc1COc1ccc(F)cc1 (stereo unspecified)	active: 20.6 µM	–
Nn1c(SCC(=O)N2CCOCC2)nnc1-c1ccccc1Cl	–	inactive: 5.08%
COc1cccc(NC(=O)Cn2c(=O)n(Cc3ccccc3)c(=O)c3c4c(sc32)CN(C(C)=O)CC4)c1	–	inactive: -46%
O=S(=O)(c1cccc(F)c1)N1CCN(c2ncnc3scc(-c4ccc(F)cc4)c23)CC1	active: 11.6 µM	–
COc1ccc(S(=O)(=O)N(C)C[C@H]2Oc3c(NC(=O)Nc4c(C)noc4C)cccc3C(=O)N([C@H](C)CO)C[C@@H]2C)cc1	inconclusive [inhibitor, single point]	–
COc1ccc(-n2cc3c(c2-c2cccc(Br)c2)c(=O)n(C)c(=O)n3C)cc1OC	active: 13 µM	–
CC(CCc1ccccc1)NC(=O)CN1CCN(c2ccc(O)cc2)CC1 (stereo unspecified)	inconclusive [inhibitor, partial curve]	–
CCOC(=O)c1cccc(NC(=O)c2cc3ccccc3o2)c1	inconclusive [inhibitor, partial curve, poor fit]	–
CN(C)CCCNc1nc2sc3c(c2c(=O)n1CCc1ccccc1)CCCCC3	active: 16.4 µM	–
CCC1(C)COC(C)(CC(=O)NNC(=O)Nc2ccccc2)OC1 (stereo unspecified)	–	inactive: 5.69%
COc1ccc(OC)c(S(=O)(=O)NC(=O)C2(C)CCN2C(=O)Cc2ccccc2Cl)c1 (stereo unspecified)	–	inactive: 4.68%
CCOC(=O)C1CN(S(=O)(=O)c2ccc(C)cc2)CCN1S(=O)(=O)c1ccc(C)cc1 (stereo unspecified)	inconclusive [inhibitor, single point]	–
